# Source: PubChem BioAssay AID463173 (ICCB-Longwood Screening Facility, Harvard Medical School, 2010)
# About 4,300 (8.3%) of roughly 52,000 compounds were called active. No stated cut-off is given here; in the data, active means survival mostly below about 52% (no sharp cut-off); inactive means mostly above about 56%. This is one part of the list.
# Test system: DeltatarO mutant
# Assay: S. aureus survival, RN4220 and DeltatarO strains – OD600, teichoic acid synthesis inhibitors, primary screen (AID 463173)
# Details: S. aureus RN4220 wild type/DeltatarO growth, OD600, 18 h, stronger effect = lower value, screened at 18.75 µg/mL (by protocol)
row,Structure (SMILES),survival
1,Cc1ccc(NC(=O)Cn2c(-c3cncs3)nc3ccccc32)c(Br)c1,inactive: 63%
2,Cc1ccc(CNC(=O)CN2C(=O)C3(SCC(=O)N3c3ccc(F)cc3)c3ccccc32)cc1 (stereo unspecified),inactive: 77%
3,CC(=O)N1CCc2c(sc3c2c(=O)n(Cc2ccccc2)c(=O)n3Cc2cc(C)ccc2C)C1,inactive: 74%
4,CC1CN(C(=O)N2CCC(C(=O)NCCCc3ccccc3)CC2)c2ccccc2O1 (stereo unspecified),inactive: 75%
5,Cc1ccc(OCCSc2nc3ccc(NC(=O)c4ccc(F)cc4)cc3s2)cc1,inactive: 109%
6,CCOC(=O)C(CC)Sc1c(CC)cnc2c1c(=O)n(C)c(=O)n2C (stereo unspecified),inactive: 84%
7,Cc1cccc(C(C)C)c1NC(=O)C(NS(=O)(=O)c1cccc2nsnc12)c1ccccc1 (stereo unspecified),inactive: 77%
8,Fc1ccc(COC(CN2CCCCC2)CN2CCCCC2)cc1,inactive: 76%
9,COc1ccc(CNC(=O)CCc2nc(-c3ccc(OC)cc3)no2)cc1,inactive: 96%
10,Nc1nc2c(s1)CCCC2,inactive: 102%
11,CCc1ccc(CNC(=O)C2CCCN(S(=O)(=O)c3ccc4c(ccn4C)c3)C2)cc1 (stereo unspecified),inactive: 101%
12,CCSc1nc2c([nH]c3ccccc32)c(=O)n1-c1ccc(F)cc1,inactive: 87%
13,Cc1cc(C)c2c(n1)sc1c(=O)n(-c3ccccc3C(F)(F)F)nnc12,inactive: 133%
14,CC1(C)Cc2ccccc2C(NN=C2CCCCC2)=N1,inactive: 98%
15,CCC(=O)N1CCc2cc(CNS(=O)(=O)c3cccs3)ccc21,inactive: 73%
16,CCCCOc1ccc(CNC(=O)c2ccc3c(c2)N(C)C(=O)C2CCCCN32)cc1 (stereo unspecified),inactive: 74%
17,Cc1ccccc1CSc1ccc(-c2cccs2)nn1,inactive: 123%
18,Cc1cc(C)n(-c2nc(C)c(C)c(=O)n2CC(=O)Nc2ccc(OC(F)(F)F)cc2)n1,inactive: 90%
19,Cc1cccc(NC(=O)c2cc(S(=O)(=O)N3CCCCCC3)cn2C)c1C,inactive: 67%
20,Cc1ccc(NC(=O)Cn2cc(C(=O)C3CC3)c3ccccc32)cc1C,inactive: 86%
21,Cc1ccc(S(=O)(=O)NC(C)(C)CN2CCCCC2)cc1,inactive: 96%
22,Cc1ccc(Cc2cn3cc(-c4ccc(F)cc4)nc3s2)cc1,inactive: 141%
23,COc1ccc(-c2c(C)c3ccc(O)c(CN4CCCC4)c3oc2=O)cc1OC,inactive: 87%

row,Structure (SMILES),survival
1,COC(=O)CSc1nc2ccccc2n1CC(=O)N1C(C)CCCC1C (stereo unspecified),inactive: 87%
2,COc1cccc(-c2cn3ncsc3n2)c1,inactive: 74%
3,O=C(/C=C/c1ccccc1Cl)N1CCC(c2nc3ccccc3o2)CC1,inactive: 63%
4,CCOc1ccc(NC(=O)c2sc3nc4n(c(=O)c3c2C)CCC4)cc1,inactive: 81%
5,Cc1ccccc1N1C(=O)c2ccccc2NC1c1ccncc1 (stereo unspecified),inactive: 93%
6,COC(=O)N1CCCc2cc(S(=O)(=O)NCc3ccccc3)ccc21,inactive: 70%
7,COc1cc(NC(=O)CN2CCN(c3ccc(F)cc3)CC2)cc(OC)c1,inactive: 97%
8,Cc1nn(CC(=O)NC2CCC(C)CC2)c(=O)c2c1sc1ccccc12 (stereo unspecified),inactive: 80%
9,Cc1ccc2oc(-c3ccc(NC(=O)CCC(=O)O)cc3)nc2c1,inactive: 86%
10,Cc1ccc(NC(=O)CCc2c(C)nc3c(-c4ccc(F)cc4)c(C)nn3c2C)cc1F,inactive: 74%
11,Cc1cc(C)c(Nc2ncnc3c2cnn3C)c(C)c1,inactive: 80%
12,CCn1cc2nc(SCC(=O)Nc3cc(OC)cc(OC)c3)n(Cc3ccc(Cl)cc3)c(=O)c2n1,inactive: 86%
13,Cc1cc(C)cc(NC(=O)CSc2nc3c(c(=O)[nH]2)CN(Cc2ccc(F)cc2)CC3)c1,inactive: 74%
14,CCn1cc(C(=O)Nc2cccc(Cl)c2)c2cc(OC)c(OC)cc2c1=O,active: 46%
15,O=C(COc1ccccc1O)NCCN1CCOCC1,inactive: 64%
16,CCCCN(CC)CCNC(=O)C1CCN(S(=O)(=O)c2cccc3nsnc23)CC1,inactive: 103%
17,Cc1ccccc1COC(=O)c1nn(-c2ccccc2)nc1N,active: -1%
18,COc1ccccc1N1CCN(C(=O)Cn2c(=O)n3nc(-c4cccc(F)c4)nc3c3ccccc32)CC1,inactive: 71%
19,CC(=O)c1ccc(N2CCN(S(=O)(=O)c3ccc(-c4coc(C)n4)cc3)CC2)cc1,inactive: 94%
20,CC(C)(C)NC(=O)Cc1ccccc1,inactive: 73%
21,CCOC(=O)c1cc2occc2n1Cc1c(F)cccc1Cl,inactive: 110%
22,Cc1cccc(C)c1NC(=O)c1ccc2c(c1)nnn2C1CCCC1,active: -5%
23,CCOc1cc(-c2ccc(OC(=O)c3ccccc3Cl)c(OC)c2)cc(=O)c2c(C)oc(C)c12,inactive: 69%

row,Structure (SMILES),survival
1,COc1ccc(-c2nn3c(=O)cc(CN4CCN(C(=O)/C=C/c5ccccc5)CC4)nc3s2)cc1,inactive: 90%
2,COc1ccc(C2CC(=O)Nc3c2c(=O)[nH]c2nc4ccccc4n32)cc1 (stereo unspecified),inactive: 66%
3,Cc1ccc(-c2cc(C(=O)Oc3ccc(C#N)cc3)no2)cc1,inactive: 97%
4,CCn1c(SCC(=O)Nc2ccccc2C(=O)OC)nc2ccsc2c1=O,inactive: 94%
5,CCC(=O)NNc1ncnc2c1cnn2-c1ccc(C)c(Cl)c1,inactive: 72%
6,CCN(Cc1ccccc1)C(=O)Cn1c(=O)n(-c2ccccc2)c(=O)c2c1c1cc(C)ccc1n2C,inactive: 94%
7,Cc1nc2ccccc2c(=O)n1-c1ccc(NC(=O)c2ccccc2[N+](=O)[O-])cc1,inactive: 69%
8,O=C(CSc1nc(=O)[nH]c2c1CCC2)NCc1ccccc1Cl,inactive: 88%
9,O=C(O)CCC(=O)NCc1ccccn1,inactive: 82%
10,CCc1ccc(CSc2nc(-c3ccccc3F)nc3c2Cc2c(CO)cnc(C)c2O3)cc1,inactive: 61%
11,CCc1nn(CC(=O)N2CCN(c3ccc(OC)cc3)CC2)c(=O)c2cc3sccc3n12,inactive: 74%
12,CC(CCc1ccccc1)NC(=O)Cn1ncc2c3ccccc3n(Cc3ccccc3F)c2c1=O (stereo unspecified),inactive: 92%
13,COc1ccc(-c2cnc(C)o2)cc1S(=O)(=O)Nc1ccc(NC(C)=O)cc1,inactive: 74%
14,O=C(CSc1nccn1-c1cccc(Cl)c1)Nc1ccc2c(c1)OCO2,inactive: 72%
15,CCN(C(=O)C1CCN(S(=O)(=O)c2cc(Br)cc3c2N(C(C)=O)CC3)CC1)c1cccc(C)c1,inactive: 72%
16,O=C(CCn1c(=O)c2cccn2c2cccnc21)N1CCN(c2ccccc2)CC1,inactive: 102%
17,Cn1c(=O)oc2cc(S(=O)(=O)CCC(=O)N3CCN(c4ccccc4F)CC3)ccc21,inactive: 91%
18,Cc1cccc(CN2C(=O)c3ccccc3Sc3ccc(C(=O)NC4CCCCC4)cc32)c1,inactive: 118%
19,O=C(Nc1ccc2nc(SCC(=O)N3CCOCC3)sc2c1)c1cccc(Br)c1,active: 29%
20,Cc1cccc(CNC(=O)C2CCC(CNS(=O)(=O)c3ccc4c(c3)CCCC(=O)N4)CC2)c1 (stereo unspecified),inactive: 91%
21,COc1ccc(OC(=O)c2nc(SCc3ccccc3F)ncc2Cl)cc1,inactive: 77%
22,Cc1ccc(NC(=O)Cn2c(=O)n(Cc3ccco3)c(=O)c3oc4ccccc4c32)cc1C,inactive: 76%
23,O=C(NC1CCCCCC1)C1COc2ccccc2O1 (stereo unspecified),inactive: 90%

row,Structure (SMILES),survival
1,CCCC(c1nnnn1CCC(C)C)N1CCC(C(N)=O)CC1 (stereo unspecified),inactive: 84%
2,COCCCNC(=O)c1ccc(-c2nc(CS(=O)(=O)c3ccc(C)cc3)c(C)o2)cc1,inactive: 95%
3,Cc1oc(-c2ccc(C(=O)NCc3cccc(F)c3)cc2)nc1COc1ccccc1,inactive: 87%
4,CCOC(=O)c1ccc(N2C(=O)c3n[nH]c(-c4ccco4)c3C2c2cccc(OC)c2)cc1 (stereo unspecified),inactive: 91%
5,COC(=O)c1ccc2c(=O)n(CCCCCC(=O)NCCc3ccc(Cl)cc3)c(=O)[nH]c2c1,active: 52%
6,Cc1ccc(Cn2ccnc2SCC(=O)NCc2ccccc2Cl)cc1,inactive: 94%
7,CCn1c(C(=O)N2CCC(C(=O)NCCc3ccc(C)cc3)CC2)cc2sccc21,inactive: 58%
8,N#Cc1c(C(F)(F)F)cc(-c2ccc(F)cc2)nc1SCC(=O)Nc1ccccc1,inactive: 72%
9,Cc1ccccc1NC(=O)CSc1nc2ccccc2c2nc(CCn3cncc3C)nn12,inactive: 94%
10,COc1ccc(NC(=O)CCc2c(C)nn(-c3ccc(N4CCCCC4)nn3)c2C)cc1Cl,inactive: 87%
11,COc1ccccc1C(=O)Nc1cccc(C(=O)OCc2cc(=O)n3ccsc3n2)c1,active: -4%
12,Cc1ccc(S(=O)(=O)N(CC(=O)Nc2ccc(Cl)cc2Cl)c2ccccc2C)cc1,inactive: 106%
13,CCOC(=O)C1CCCN(C(=O)c2ccc3c(c2)sc2nc(-c4ccc(CC)cc4)cn23)C1 (stereo unspecified),inactive: 58%
14,Cc1ccc(CNC(=O)C(C)n2nc(C)n3c(cc4sccc43)c2=O)cc1 (stereo unspecified),inactive: 111%
15,CCOc1ccc(S(=O)(=O)NC(=O)N(CC)Cc2cc3ccccc3o2)cc1,inactive: 76%
16,Cc1ccc(C(C)C)c(OCC(O)CN2CCN(c3ccccc3F)CC2)c1 (stereo unspecified),active: -5%
17,COc1ccc(-n2nnnc2C2CCN(S(=O)(=O)c3ccc(NC(C)=O)cc3)CC2)cc1,inactive: 77%
18,CCn1c(=N)c(C(=O)NCc2ccccc2)cc2c(=O)n3cccc(C)c3nc21,inactive: 53%
19,CC(C)c1ccc(C2NC(=O)c3n[nH]c(-c4cccs4)c32)cc1 (stereo unspecified),inactive: 77%
20,COc1ccc(Cl)cc1S(=O)(=O)NCc1ccc2c(c1)CCN2C(=O)c1cccc(C)c1,inactive: 120%
21,CCOc1ccc(CCNC(=O)CS(=O)(=O)Cc2nc(-c3ccc(OC)cc3)oc2C)cc1,inactive: 83%
22,Cc1cccc2sc(N(CCN(C)C)C(=O)c3ccc4c(c3)OCCO4)nc12,inactive: 119%
